According to a compilation of properties of binary mixtures (doi:10.1021/jp3012602):
Some of these densities may be calculated back from excess volumes.

Assay: xn = mol fraction of the nth substance listed
Settings: 101 kPa

CCC[N+]1(C)CCCC1.O=S(=O)([N-]S(=O)(=O)C(F)(F)F)C(F)(F)F + CCCCCCCCCCCCCC[P+](CCCCCC)(CCCCCC)CCCCCC.O=S(=O)([N-]S(=O)(=O)C(F)(F)F)C(F)(F)F
mass density [kg/m3]
Settings | 293.15 K | 303.15 K | 313.15 K | 323.15 K | 333.15 K | 343.15 K | 353.15 K
x2 = 0 | – | 1423 | 1414 | – | 1396 | 1388 | 1379
x2 = 0.05 | 1392 | – | 1373 | – | 1357 | 1348 | 1340
x2 = 0.5 | 1169 | 1162 | 1154 | 1146 | 1139 | 1131 | 1123
x2 = 0.6 | 1145 | 1137 | 1129 | 1121 | 1114 | 1106 | –
x2 = 0.75 | 1112 | 1105 | – | 1090 | 1082 | 1075 | 1068

CCC[N+]1(C)CCCC1.O=S(=O)([N-]S(=O)(=O)C(F)(F)F)C(F)(F)F + CCCCCC[N+]1(C)CCCC1.O=S(=O)([N-]S(=O)(=O)C(F)(F)F)C(F)(F)F
x2 = 0
Settings | mass density [kg/m3]
303.15 K | 1423
313.15 K | 1414
323.15 K | 1405
333.15 K | 1396
343.15 K | 1388

CCC[N+]1(C)CCCC1.O=S(=O)([N-]S(=O)(=O)C(F)(F)F)C(F)(F)F + CCCC[N+]1(C)CCCC1.O=S(=O)([N-]S(=O)(=O)C(F)(F)F)C(F)(F)F
mass density [kg/m3]
Settings | 293.15 K | 303.15 K | 313.15 K | 323.15 K | 333.15 K | 343.15 K | 353.15 K
x2 = 0 | – | 1423 | 1414 | 1405 | – | 1388 | 1379
x2 = 0.25 | – | 1414 | 1406 | 1397 | 1388 | 1379 | 1370
x2 = 0.5 | 1415 | 1406 | 1397 | 1388 | 1379 | 1370 | –
x2 = 0.75 | 1406 | 1398 | 1389 | 1380 | – | 1363 | 1354

CCC[N+]1(C)CCCC1.O=S(=O)([N-]S(=O)(=O)C(F)(F)F)C(F)(F)F + CCC[N+]1(C)CCCC1.N#C[N-]C#N
x2 = 0
Settings | mass density [kg/m3]
303.15 K | 1423
323.15 K | 1405
333.15 K | 1396
343.15 K | 1388

CCCCCCCCCCCCCC[P+](CCCCCC)(CCCCCC)CCCCCC.O=S(=O)([N-]S(=O)(=O)C(F)(F)F)C(F)(F)F + CCC[N+]1(C)CCCC1.O=S(=O)([N-]S(=O)(=O)C(F)(F)F)C(F)(F)F
x1 = 1
Settings | mass density [kg/m3]
313.15 K | 1055
323.15 K | 1049
333.15 K | 1042
343.15 K | 1033
353.15 K | 1026

CCCCCC[N+]1(C)CCCC1.O=S(=O)([N-]S(=O)(=O)C(F)(F)F)C(F)(F)F + CCC[N+]1(C)CCCC1.O=S(=O)([N-]S(=O)(=O)C(F)(F)F)C(F)(F)F
mass density [kg/m3]
Settings | 293.15 K | 303.15 K | 313.15 K | 323.15 K | 333.15 K | 343.15 K | 353.15 K
x1 = 0.25 | 1405 | – | – | 1378 | 1367 | 1356 | 1344
x1 = 0.5 | 1381 | 1373 | 1364 | 1355 | 1346 | 1337 | –
x1 = 0.75 | 1359 | 1350 | 1341 | 1332 | 1322 | 1311 | 1299
x1 = 1 | – | 1329 | 1321 | 1312 | 1304 | 1296 | 1287

CCCC[N+]1(C)CCCC1.O=S(=O)([N-]S(=O)(=O)C(F)(F)F)C(F)(F)F + CCC[N+]1(C)CCCC1.O=S(=O)([N-]S(=O)(=O)C(F)(F)F)C(F)(F)F
x1 = 1
Settings | mass density [kg/m3]
303.15 K | 1391
313.15 K | 1382
323.15 K | 1373
333.15 K | 1365
343.15 K | 1356
353.15 K | 1347

CCC[N+]1(C)CCCC1.N#C[N-]C#N + CCC[N+]1(C)CCCC1.O=S(=O)([N-]S(=O)(=O)C(F)(F)F)C(F)(F)F
mass density [kg/m3]
Settings | 293.15 K | 303.15 K | 313.15 K | 323.15 K | 333.15 K | 343.15 K | 353.15 K
x1 = 0.25 | 1360 | – | 1342 | 1334 | – | 1318 | 1310
x1 = 0.5 | 1277 | 1269 | 1261 | 1253 | 1246 | 1239 | 1232
x1 = 0.75 | 1170 | – | 1156 | 1150 | – | – | 1130
x1 = 1 | – | – | 1026 | 1021 | 1015 | 1010 | 1005

CC[n+]1ccn(C)c1.O=S(=O)([N-]S(=O)(=O)C(F)(F)F)C(F)(F)F + CCC[N+]1(C)CCCC1.O=S(=O)([N-]S(=O)(=O)C(F)(F)F)C(F)(F)F
x1 = 1
Settings | mass density [kg/m3]
303.15 K | 1514
313.15 K | 1503
323.15 K | 1494
333.15 K | 1484
343.15 K | 1474
353.15 K | 1464

CCC[N+]1(C)CCCC1.O=S(=O)([N-]S(=O)(=O)C(F)(F)F)C(F)(F)F + CC[n+]1ccn(C)c1.O=S(=O)([N-]S(=O)(=O)C(F)(F)F)C(F)(F)F
mass density [kg/m3]
Settings | 293.15 K | 303.15 K | 313.15 K | 323.15 K | 333.15 K | 343.15 K | 353.15 K
x2 = 0 | – | 1423 | 1414 | 1405 | – | 1388 | –
x2 = 0.25 | 1454 | 1445 | 1435 | 1426 | 1417 | 1408 | 1399
x2 = 0.5 | – | – | 1456 | 1447 | 1437 | 1428 | 1418
x2 = 0.75 | 1499 | 1489 | 1479 | 1469 | 1453 | 1444 | 1433
